Screen size: about 310,000 compounds; about 2,200 (0.71%) showed an effect of 50% or more. The effect is printed as a negative number. Some of the results follow.
Target: human ether-à-go-go-related gene (hERG) potassium channel (human, UniProt Q12809)
Assay: primary screen, population patch clamp on CHO cells stably expressing hERG

Chain of human ether-à-go-go-related gene (hERG) potassium channel (Q12809 whole entry, looked up): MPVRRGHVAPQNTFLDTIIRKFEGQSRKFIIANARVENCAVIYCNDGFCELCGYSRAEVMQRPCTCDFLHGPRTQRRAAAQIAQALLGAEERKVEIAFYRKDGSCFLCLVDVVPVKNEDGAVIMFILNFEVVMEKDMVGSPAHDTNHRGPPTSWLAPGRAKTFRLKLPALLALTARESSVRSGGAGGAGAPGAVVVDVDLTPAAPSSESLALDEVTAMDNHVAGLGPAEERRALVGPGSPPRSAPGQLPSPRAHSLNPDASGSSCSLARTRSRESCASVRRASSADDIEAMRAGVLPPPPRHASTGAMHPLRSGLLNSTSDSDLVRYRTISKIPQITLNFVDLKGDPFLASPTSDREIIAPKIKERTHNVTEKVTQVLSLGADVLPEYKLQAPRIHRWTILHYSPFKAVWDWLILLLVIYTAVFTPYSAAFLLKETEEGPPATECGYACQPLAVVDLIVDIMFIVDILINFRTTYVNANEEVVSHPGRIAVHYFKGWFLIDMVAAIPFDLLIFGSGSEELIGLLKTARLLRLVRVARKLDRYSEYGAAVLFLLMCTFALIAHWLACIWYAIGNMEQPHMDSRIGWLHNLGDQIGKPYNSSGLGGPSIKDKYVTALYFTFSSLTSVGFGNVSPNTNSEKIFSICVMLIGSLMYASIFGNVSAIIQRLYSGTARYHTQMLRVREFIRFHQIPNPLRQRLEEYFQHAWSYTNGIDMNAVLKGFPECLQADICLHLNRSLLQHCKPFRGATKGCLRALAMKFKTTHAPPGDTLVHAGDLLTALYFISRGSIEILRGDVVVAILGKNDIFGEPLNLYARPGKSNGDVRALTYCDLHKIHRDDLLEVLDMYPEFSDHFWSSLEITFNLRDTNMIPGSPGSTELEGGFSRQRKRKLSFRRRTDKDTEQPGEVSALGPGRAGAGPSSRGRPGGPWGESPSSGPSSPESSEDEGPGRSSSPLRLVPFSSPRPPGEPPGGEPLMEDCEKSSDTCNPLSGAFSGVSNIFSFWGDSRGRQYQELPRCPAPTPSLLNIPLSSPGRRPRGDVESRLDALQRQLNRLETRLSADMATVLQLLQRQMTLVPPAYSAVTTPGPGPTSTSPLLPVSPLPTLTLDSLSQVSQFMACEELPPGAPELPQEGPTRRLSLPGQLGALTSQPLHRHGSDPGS

How did the “hERG current change (%, negative = inhibition) at 1uM” value turn out when `COC(=O)c1c(C)nc2c(c(SC)nn2-c2ccccc2)c1N` was run?
The value was 1.51%.

Which “hERG current change (%, negative = inhibition) at 1uM” value does the source give for `CCOC(=O)c1c(C)[nH]c(NC(=O)Nc2c(C)n(C)n(-c3ccccc3)c2=O)c1C` here?
Its value is 15.2%.

Which “hERG current change (%, negative = inhibition) at 1uM” value does the source give for `CC(C)N1CCC(N2CCN(Cc3nc4ccccc4s3)CC2CCO)CC1` (centres unmarked) here?
Its value is 3.75%.

Which “hERG current change (%, negative = inhibition) at 1uM” value does the source give for `Fc1ccc(NC(=S)Nc2ccc(F)c(Cl)c2)cc1Cl` here?
The value was 7.52%.

For `Cc1ccc(COc2ccc(/C=N/O)cc2)cc1`, which “hERG current change (%, negative = inhibition) at 1uM” value is on record?
Its value is 11.5%.

How did the “hERG current change (%, negative = inhibition) at 1uM” value turn out when `O=C(c1ccc(CS(=O)(=O)c2ccc(Br)cc2)o1)N1CCN(c2ccc(F)cc2)CC1` was run?
Its value is 8.86%.

How did the “hERG current change (%, negative = inhibition) at 1uM” value turn out when `O=C(O)c1ccccc1SCCS(=O)(=O)c1ccc(Cl)cc1Cl` was run?
The value was -4.25%.

Which “hERG current change (%, negative = inhibition) at 1uM” value does the source give for `Cc1cccnc1NC(=O)C1c2ccccc2Oc2ccccc21` here?
The value was 0.998%.

How did the “hERG current change (%, negative = inhibition) at 1uM” value turn out when `Cc1cc(S(=O)(=O)N2c3ccc(F)cc3CCC2C)ccc1-n1cnnn1` (centres unmarked) was run?
The value was 3.04%.

How did the “hERG current change (%, negative = inhibition) at 1uM” value turn out when `CCOC(=O)C1C(=O)C=C(/C=C/c2ccccc2)CC1c1ccc(Cl)cc1` (centres unmarked) was run?
Its value is -1.42%.

`CC(C)OC(=O)c1ccc(COc2ccc3ccc(=O)oc3c2)o1` was tested. Which “hERG current change (%, negative = inhibition) at 1uM” value did it give?
Its value is 3.2%.

How did the “hERG current change (%, negative = inhibition) at 1uM” value turn out when `O=C(CSc1ccccn1)Nc1cccc2ccccc12` was run?
Its value is 16.8%.

For `COC(=O)CCSc1cc([N+](=O)[O-])cc2c1c(C1OCCS1)nn2-c1ccccc1` (centres unmarked), which “hERG current change (%, negative = inhibition) at 1uM” value is on record?
Its value is 6.4%.

How did the “hERG current change (%, negative = inhibition) at 1uM” value turn out when `OCCNC(=S)c1ccccc1` was run?
The value was 12.8%.

Which “hERG current change (%, negative = inhibition) at 1uM” value does the source give for `N#Cc1ccccc1CSc1nc(N)cc(N)n1` here?
Its value is 11.8%.

With `CCNS(=O)(=O)c1c(C)cc(N2CCCC2=O)cc1C` as the molecule, how does the “hERG current change (%, negative = inhibition) at 1uM” value read?
Its value is 6.3%.

How did the “hERG current change (%, negative = inhibition) at 1uM” value turn out when `Cc1ccc2nc(-c3ccc4c(c3)OCCO4)cn2c1` was run?
Its value is 15.7%.

With `Cc1cccc(C(=O)NC(C(=O)Nc2cccc(S(=O)(=O)N3CCCC3)c2)C(C)C)c1` (centres unmarked) as the molecule, how does the “hERG current change (%, negative = inhibition) at 1uM” value read?
The value was 12.1%.

For `CCN(C(=O)Cn1cnc2c(nc3n2CCCCC3)c1=O)c1cccc(Cl)c1`, which “hERG current change (%, negative = inhibition) at 1uM” value is on record?
The value was 8.61%.

How did the “hERG current change (%, negative = inhibition) at 1uM” value turn out when `O=S(=O)(N/N=C/c1ccc2c(c1)OCCO2)c1ccccc1` was run?
Its value is -2.55%.

`Cc1nc2cc(-c3ccc(Cl)cc3)nn2c(C)c1CCC(=O)NC(C)c1ccc2c(c1)OCCO2` (centres unmarked) was tested. Which “hERG current change (%, negative = inhibition) at 1uM” value did it give?
The value was -2.05%.

How did the “hERG current change (%, negative = inhibition) at 1uM” value turn out when `COc1ccc(/C=C2/SC(=S)N(CCCC(=O)N3CCN(C)CC3)C2=O)cc1` was run?
Its value is 10.7%.

`Cc1ccc(C)c(N2CCN(S(=O)(=O)c3ccc4c(c3)CCN4C(=O)CCC(=O)O)CC2)c1` was tested. Which “hERG current change (%, negative = inhibition) at 1uM” value did it give?
The value was 9.48%.

How did the “hERG current change (%, negative = inhibition) at 1uM” value turn out when `O=C(N/N=C/c1ccc2c(c1)OCO2)c1cc(-c2ccccc2Cl)nc2ccccc12` was run?
The value was 10.2%.

`Cc1nc([N+](=O)[O-])c(C(=O)OCc2ccc(C#N)cc2)n1C` was tested. Which “hERG current change (%, negative = inhibition) at 1uM” value did it give?
The value was 5.44%.

With `CCS(=O)(=O)Nc1ccc(C2=NN(S(=O)(=O)c3ccc(F)cc3)C(c3ccco3)C2)cc1` (centres unmarked) as the molecule, how does the “hERG current change (%, negative = inhibition) at 1uM” value read?
Its value is -21%.

`CCOc1ccc(NC(=O)C2CC(=O)N(CCc3ccc(OC)c(OC)c3)C2)cc1OCC` (centres unmarked) was tested. Which “hERG current change (%, negative = inhibition) at 1uM” value did it give?
Its value is 10.4%.

How did the “hERG current change (%, negative = inhibition) at 1uM” value turn out when `O=C(O)/C=C/C(=O)Nc1ccccc1-c1ccccc1NC(=O)/C=C/C(=O)O` was run?
The value was 16.4%.

Which “hERG current change (%, negative = inhibition) at 1uM” value does the source give for `Cc1cc(C)cc(OCC(=O)Nc2cccc(-c3nnc(-c4ccco4)o3)c2)c1` here?
The value was 6.43%.

With `Cc1ccc(Cn2nnc(C(=O)Nc3cc(C)ccc3C)c2N)cc1` as the molecule, how does the “hERG current change (%, negative = inhibition) at 1uM” value read?
Its value is 8.18%.

`Cc1ccc(OCC(=O)N(C)CC(=O)Nc2cccc(F)c2)cc1` was tested. Which “hERG current change (%, negative = inhibition) at 1uM” value did it give?
Its value is 8.3%.

How did the “hERG current change (%, negative = inhibition) at 1uM” value turn out when `Cc1ccc(C(=O)Nc2ccc(C(=O)O)cc2NC(=O)c2ccc(C)cc2)cc1` was run?
Its value is 9.55%.

With `O=C(CCc1ccccc1)Nc1ccc2ccccc2n1` as the molecule, how does the “hERG current change (%, negative = inhibition) at 1uM” value read?
Its value is -2.39%.

With `CCn1c(CNc2ccc(F)cc2)nnc1SCCN1CCCCC1` as the molecule, how does the “hERG current change (%, negative = inhibition) at 1uM” value read?
Its value is 7.67%.

Which “hERG current change (%, negative = inhibition) at 1uM” value does the source give for `COC(=O)c1ccc(NC(=O)C2CCCO2)cc1` (centres unmarked) here?
Its value is 5.7%.

`O=c1ccn(Cc2ccccc2)c2ccccc12` was tested. Which “hERG current change (%, negative = inhibition) at 1uM” value did it give?
The value was 7.82%.

With `COC(=O)CNC(c1ccccc1)c1cc(Br)ccc1N` (centres unmarked) as the molecule, how does the “hERG current change (%, negative = inhibition) at 1uM” value read?
The value was -2.27%.

`COc1ccc(OC)c(NC(=O)CSc2nnc(CNC(=O)c3ccccc3F)o2)c1` was tested. Which “hERG current change (%, negative = inhibition) at 1uM” value did it give?
The value was 14.5%.

`CC(C)(C)C(=O)Nc1sc2c(c1C(=O)Nc1ccccn1)CCCC2` was tested. Which “hERG current change (%, negative = inhibition) at 1uM” value did it give?
The value was -2.96%.

For `COc1ccc(CCn2c(C3CCCCC3)nc3c(c(=O)c4ccccc4n3C)c2=O)cc1OC`, which “hERG current change (%, negative = inhibition) at 1uM” value is on record?
The value was 9.2%.

With `CC/C(=N\NC(N)=O)c1ccc(OC(F)F)cc1` as the molecule, how does the “hERG current change (%, negative = inhibition) at 1uM” value read?
The value was -7.16%.

`C/C(N)=C(/C#N)C(=O)COC(=O)c1cc(-c2ccccc2)nc2ccc(Br)cc12` was tested. Which “hERG current change (%, negative = inhibition) at 1uM” value did it give?
The value was 11%.

With `O=C1CC(N2CCC(O)(c3ccc(Br)cc3)CC2)C(=O)N1c1ccc(Cl)cc1` (centres unmarked) as the molecule, how does the “hERG current change (%, negative = inhibition) at 1uM” value read?
Its value is -5.91%.

How did the “hERG current change (%, negative = inhibition) at 1uM” value turn out when `Cc1ccc(CN2CCN(/N=C/C(Br)=C\c3ccccc3)CC2)cc1` was run?
The value was 9.76%.

How did the “hERG current change (%, negative = inhibition) at 1uM” value turn out when `Cc1ccc(OCc2cc(C(=O)NCc3ccc(OC(F)(F)F)cc3)no2)cn1` was run?
Its value is 7.67%.

`CCOC(=O)CC(=O)NC(C)(C)CCCCC(C)(C)NC(=O)CC(=O)OCC` was tested. Which “hERG current change (%, negative = inhibition) at 1uM” value did it give?
The value was 14%.

How did the “hERG current change (%, negative = inhibition) at 1uM” value turn out when `COc1ccc(C2NC(=O)NC(C)=C2C(=O)OCC2CCCCC2)cc1OC` (centres unmarked) was run?
The value was 9.95%.

How did the “hERG current change (%, negative = inhibition) at 1uM” value turn out when `C/C(=N/Oc1nc(C)cc(C)n1)c1ccc(Cl)cc1Cl` was run?
The value was 15%.

Which “hERG current change (%, negative = inhibition) at 1uM” value does the source give for `C/C(=N\Nc1ccccn1)c1ccc(N2CCOCC2)cc1` here?
The value was 3.01%.

How did the “hERG current change (%, negative = inhibition) at 1uM” value turn out when `Cc1cccc(NC(=O)N2CCC(C(=O)c3ccc(F)cc3)CC2)c1` was run?
The value was 6.21%.

For `CSc1ccccc1OCc1cc(C(=O)N2CCc3[nH]cnc3C2c2ccccn2)no1` (centres unmarked), which “hERG current change (%, negative = inhibition) at 1uM” value is on record?
The value was 8.48%.

Which “hERG current change (%, negative = inhibition) at 1uM” value does the source give for `Cc1nn(CC(=O)NCc2cc3ccccc3[nH]2)c(C)c1[N+](=O)[O-]` here?
The value was 13%.

How did the “hERG current change (%, negative = inhibition) at 1uM” value turn out when `COc1ccc(/C=C/C(=O)O)cc1COc1cccc(C)c1` was run?
Its value is 9.98%.

How did the “hERG current change (%, negative = inhibition) at 1uM” value turn out when `Cc1cc2nncn2c2ccccc12` was run?
Its value is 15.7%.

With `O=C(CCN1C(=O)COc2ccccc21)NCCN1CCc2ccccc2C1` as the molecule, how does the “hERG current change (%, negative = inhibition) at 1uM” value read?
The value was -12.3%.

Which “hERG current change (%, negative = inhibition) at 1uM” value does the source give for `CC(C(=O)NCc1ccccc1)n1cc([N+](=O)[O-])cn1` (centres unmarked) here?
Its value is 9.6%.

Reference: paper PMC4336329 (PLoS ONE, 2015)
